# Read counts are not given, so values of variants with three or more changes are uncertain.
# B1: CPEB3 Ribozyme (parent)
# chain: UAACAGGGGGCCACAGCAGAAGCGUUCACGUCGCAGCCCCUGUCAGAUUCUGGUGAAUCUGCGAAUUCUGCUGUAUAUCUC
# Variants of: B1
# Test: self-cleavage, relative activity (ratio to wild type); higher = more cleavage; in vitro, sequencing
# Outline: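 Libraries of CPEB3 self-cleaving ribozyme mutants came from rounds of error-prone PCR and carried barcodes, which DNA sequencing matched to variants. In vitro transcription used T7 RNA polymerase at 37°C for 5 hours, with a further 15 min in DNase I before EDTA stopped the reaction; the ribozymes cleaved during both steps. The RNA was reverse transcribed with template switching and sequenced on Illumina. Relative activity is the cleaved/total read fraction of a variant divided by that of the unmutated ribozyme, averaged over three batches with at least 5 reads.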
row,Variant,self-cleavage
1,UAACAGGGGGCCACAGCAGAAGCGUAUGCGUCGCAGCCCGUGUCAGAUUCCGGCGAAUCUGCGAAUUCUGCUGUAUAUCUC [U26A C27U A28G C40G U51C U54C],0.33
2,UAACAGGGGGCCACAGCAGAAGCGUACAAGUCGCAGCCCCUGUCAGAUUCUGGUGAAUCUGCGAAUUCUGCUGUAUAUCCC [U26A C29A U80C],0.51
3,UAACAGGGGGCCACAGCAGAAGCGUACAGGUCGCAGCCCCUGUAAGAUUCUGGUGAAUCUGCGAAUUCUGCAGUACAUCUC [U26A C29G C44A U72A U76C],0.09
4,UAACAGGGGGCCACAGCAGAAGCGUACAUGUCGUAGCCCCUGUCAGAUUCUGGUGAAUCUGCGAAUUCUGCUGUAUAUCUC [U26A C29U C34U],0.1
5,UAACAGGGGGCCACAGCAGAAGCGUACAUGUCGCAGCCCCUGACAGAUUCUGGUGAAUCUGCGAAUUCUGCUGUAUAUCUC [U26A C29U U43A],0.19
6,UAACAGGGGGCCACAGCAGAAGCGUACACGUUGCUGCCCCUGUCAGAUUCUGGUGAAUCUGCAAAUCCUGCUGUAUAUCUC [U26A C32U A35U G63A U67C],0.06
7,UAACAGGGGGCCACAGCAGAAGCGUACACGUUGCAGCCCCUGUCGGAUACUGGUGUGUCUGCGAAUUCUGCUGUAUAUCUC [U26A C32U A45G U49A A56U A57G],0.06
8,UAACAGGGGGCCACAGCAGAAGCGUACACGUUGCAGCCCCUGUCAGAUUCCGGUGAAUCUGCGGAUUCUGCUGUAUAUCUC [U26A C32U U51C A64G],0.08
9,UAACAGGGGGCCACAGCAGAAGCGUACACGUUGCAGCCCCUGUCAGAUUCCGGUGAAUCUGCGAGUUCUGCUGUACAUCCC [U26A C32U U51C A65G U76C U80C],0.15
10,UAACAGGGGGCCACAGCAGAAGCGUACACGUUGCAGCCCCUGUCAGAUUCUGGCGAAUCUGCGAAUUCUGCUGUAUAUCUC [U26A C32U U54C],0.48
11,UAACAGGGGGCCACAGCAGAAGCGUACACGUCGAGGCCCCUGUCAGGUUCUGGUGAAUCUGCGAAUUCUGCUGUAUAUCUC [U26A C34A A35G A47G],0.9
12,UAACAGGGGGCCACAGCAGAAGCGUACACGUCGGAGCCCCUGUCAGAUUCUGGUGAAUCUGCGAAUUCAGCGGUAUAUCUC [U26A C34G U69A U72G],0.12
13,UAACAGGGGGCCACAGCAGAAGCGUACACGUCGUAGCCCCUGUCAGGUUCUGGUGAGUCUGCGAAUUCUGCUGUAUAUCUC [U26A C34U A47G A57G],0.09
14,UAACAGGGGGCCACAGCAGAAGCGUACACGUCGUAGCCCCAGUCAGAUUCUGGUGAAUCUGCGAAUUCUGCUGUUUAUCUC [U26A C34U U41A A75U],0.27
15,UAACAGGGGGCCACAGCAGAAGCGUACACGUCGUAGCCCCUGUCAGAUACUGGUGAAUCUGCGAAUUCUGCUGUAUAUCUC [U26A C34U U49A],0.15
16,UAACAGGGGGCCACAGCAGAAGCGUACACGUCGCAGUCCCUGUCAGAUUCUGGUGAAUCUGCGAAUUCUGCUGUACGUCUC [U26A C37U U76C A77G],0.38
17,UAACAGGGGGCCACAGCAGAAGCGUACACGUCGCAGCUCCUGUCAGAUUCUGGUGAAUCUGCGAGCUCCGCUGUAUAUCUC [U26A C38U A65G U66C U69C],0.19

row,Variant,self-cleavage
1,UAACAGGGGGCCACAGCAGAAGCGUACACGUCGCAGCUCCUGUCAGAUUCUGGUGAAUCUGCGAAUUCUGCUGUUUAUCUC [U26A C38U A75U],1.06
2,UAACAGGGGGCCACAGCAGAAGCGUACACGUCGCAGCUCCUGUCAGAUUCUGGUGAAUCUACGAAUUCUGCUGUAUAUCUC [U26A C38U G61A],0.24
3,UAACAGGGGGCCACAGCAGAAGCGUACACGUCGCAGCUCCCGUCAGAUUCUGGUGGAUCUGCGAACUCUGCUGUAUAUCUC [U26A C38U U41C A56G U66C],0.09
4,UAACAGGGGGCCACAGCAGAAGCGUACACGUCGCAGCCACUGUCAGAUUCUGAUGAAUCUGCGAAUUCUGCUGUAUAUCUC [U26A C39A G53A],0.22
5,UAACAGGGGGCCACAGCAGAAGCGUACACGUCGCAGCCACCGUCAGAUUCUGGUGAAUCUGCGAAUUCUGCUGUAUAUCUC [U26A C39A U41C],0.11
6,UAACAGGGGGCCACAGCAGAAGCGUACACGUCGCAGCCCACGUCAGAUUCUGGUGAAUCUGCGAAUUCUGCUGUAUAUCUC [U26A C40A U41C],0.39
7,UAACAGGGGGCCACAGCAGAAGCGUACACGUCGCAGCCCAUGUCAGAUUCAGGUGUAUCUGCGAAUUCUGCUGUGUAUCUC [U26A C40A U51A A56U A75G],0.12
8,UAACAGGGGGCCACAGCAGAAGCGUACACGUCGCAGCCCAUGUCAGAUUCUGGUGAAUCUGCGAAUUCUGCAGUAUAUCUC [U26A C40A U72A],0.03
9,UAACAGGGGGCCACAGCAGAAGCGUACACGUCGCAGCCCUAGUCAGAUUCUGGUGAAUCUGCGAAUUCUGCUGUAUAUCUC [U26A C40U U41A],0.31
10,UAACAGGGGGCCACAGCAGAAGCGUACACGUCGCAGCCCUUGUCAGAUUCCGGUGAAUCUGCGAAUUCUGCUGUAUAUCUC [U26A C40U U51C],0.2
11,UAACAGGGGGCCACAGCAGAAGCGUACACGUCGCAGCCCUUGUCAGAUUCUGGUGAAUCUGCGAAUUCUGCAGUACAUCGC [U26A C40U U72A U76C U80G],0.33
12,UAACAGGGGGCCACAGCAGAAGCGUACACGUCGCAGCCCCUGUUAGAUUCUGGUGAAUCUGCGAAUUCUGCUGUAUAACUC [U26A C44U U78A],0.56
13,UAACAGGGGGCCACAGCAGAAGCGUACACGUCGCAGCCCCUGUCAGAUUAUGGCGAAUCUGCGAAUUCUGCUGUAUAUCUC [U26A C50A U54C],0.4
14,UAACAGGGGGCCACAGCAGAAGCGUACACGUCGCAGCCCCUGUCAGAUUCUGGUGAAUAUGCGAAUUCUGCUGUUUAUCUC [U26A C59A A75U],0.25
15,UAACAGGGGGCCACAGCAGAAGCGUACACGUCGCAGCCCCUGUCAGAUUCUGGUGAAUAUGCGAAUUCCGCUGAAUAUCUC [U26A C59A U69C U74A],0.09
16,UAACAGGGGGCCACAGCAGAAGCGUACACGUCGCAGCCCCUGUCAGAUUCUGGUGAAUCUGGGAAUUCUGUUGCAUAUCUC [U26A C62G C71U U74C],0.22
17,UAACAGGGGGCCACAGCAGAAGCGUACACGUCGCAGCCCCUGUCAGAUUCUGGUGAAUCUGGGAAUUCGGCUGUAUACCUC [U26A C62G U69G U78C],0.2
